# The BET-seq Pho4 binding data (Le et al. 2018)
# The list shows a part of the results. Values were computed here from the reads of four pooled replicates and scatter widely.
# Target: T1, Pho4 (S. cerevisiae) (UniProt P07270)
# T1 sequence: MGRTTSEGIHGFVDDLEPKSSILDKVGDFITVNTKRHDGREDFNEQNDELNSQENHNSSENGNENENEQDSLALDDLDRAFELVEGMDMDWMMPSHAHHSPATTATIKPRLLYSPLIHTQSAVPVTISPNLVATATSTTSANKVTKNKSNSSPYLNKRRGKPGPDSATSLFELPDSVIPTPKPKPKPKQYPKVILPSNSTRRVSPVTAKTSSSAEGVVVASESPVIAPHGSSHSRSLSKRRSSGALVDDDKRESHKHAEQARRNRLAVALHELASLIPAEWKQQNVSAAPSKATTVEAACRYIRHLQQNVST
# Test: relative binding free energy (BET-seq); higher = weaker binding
# Conditions: reference: library average
row,Sequence,relative binding free energy [kcal/mol]
1,ATGGGCACGTGCTATG,-0.12
2,TTACTCACGTGTAGTA,0.26
3,ATCAGCACGTGGGTTG,-0.26
4,TGTAACACGTGGGAGA,-0.06
5,GTGCGCACGTGTGGTC,0.12
6,TTAACCACGTGTTTGT,-0.11
7,TGATTCACGTGCGGAA,0.26
8,GGCTACACGTGAGGTT,0.28
9,TTAAACACGTGGATGG,0.15
10,ATGAACACGTGTAGGT,0.05
11,TTTAACACGTGGTTGT,-0.06
12,TTGATCACGTGAGGAA,0.33
13,ATGGACACGTGCTTAG,0.03
14,TTATGCACGTGGATTG,-0.09
15,TTTGCCACGTGAATGT,0.2
16,TGGCGCACGTGTTAGT,0
17,TTGAGCACGTGGGCGT,-0.26
18,GGGTCCACGTGTGTAA,-0.03
19,TTTCTCACGTGGTTTC,0.31
20,TTGGGCACGTGTCAGA,-0.04
21,AGCGGCACGTGATTTG,0.05
22,CTGTCCACGTGGTGGT,-0.04
23,TGATGCACGTGGGCAA,-0.06
24,CGTGGCACGTGACTTG,-0.03
25,TGTGACACGTGAGGTT,0.19
26,ATTGTCACGTGTAAAT,0.24

row,Sequence,relative binding free energy [kcal/mol]
1,CAGTTCACGTGATGGG,0.35
2,TGGGGCACGTGTGAGA,-0.04
3,AATGTCACGTGGGCTA,-0.14
4,AGGAACACGTGGTGGT,0
5,AGTCGCACGTGGTGAT,-0.18
6,TCTGCCACGTGGCGGG,-0.13
7,TTAGTCACGTGTTTGT,0.13
8,TTGTTCACGTGCTTAT,0.16
9,ATTGGCACGTGTTAAA,-0.1
10,GGACGCACGTGGGGAT,-0.16
11,CGTGGCACGTGTACGG,-0.03
12,GGAACCACGTGTGTAT,0.14
13,GTTTACACGTGAAAAG,0.48
14,TGATTCACGTGGGACG,0.2
15,GATTTCACGTGTTGAT,0.3
16,TTATTCACGTGTGTTC,0.33
17,ACGGGCACGTGCGTGG,-0.2
18,ATTTTCACGTGGGAAG,0.23
19,TAGGGCACGTGCGTGA,-0.25
20,TCGGACACGTGTGGGC,0.01
21,ATATTCACGTGGTGGA,0.18
22,TTACGCACGTGTGGTA,-0.01
23,TTTGCCACGTGTTAGG,-0.11
24,GTAAGCACGTGGGCTG,-0.15
25,ATTGGCACGTGGGCAC,-0.23
26,TAAGGCACGTGTGACG,-0.01

row,Sequence,relative binding free energy [kcal/mol]
1,TTGGTCACGTGTTGAA,0.2
2,AGTGGCACGTGAGACG,0.18
3,GCTGTCACGTGAGTAG,0.26
4,TCGATCACGTGGTTGA,0.25
5,TACGGCACGTGAGATT,0.2
6,GGTAACACGTGCGATG,0.22
7,ATTTTCACGTGAATTT,0.37
8,AATGGCACGTGTATGA,-0.05
9,AGTAACACGTGAGGCT,0.17
10,TTCGGCACGTGGGTCA,-0.33
11,GGATACACGTGGAGTG,0.01
12,TGGTGCACGTGGGAGG,-0.1
13,TATCGCACGTGGCAGG,-0.11
14,GATAACACGTGGTATG,0.09
15,TGTAGCACGTGTTAGT,0.06
16,ATGTGCACGTGATGCT,0.07
17,TAGATCACGTGTATAG,0.24
18,TCGGACACGTGATGGG,0.16
19,GATGTCACGTGTTAGT,0.23
20,CTAGCCACGTGATGGT,0.13
21,TTATGCACGTGTGTTT,0.05
22,TTGCCCACGTGGTGGT,-0.15
23,GATTGCACGTGGTTGT,0.01
24,GTATTCACGTGATCGT,0.18
25,AGGTGCACGTGTACAG,-0.16
26,ATTTGCACGTGTAATC,0.12

row,Sequence,relative binding free energy [kcal/mol]
1,TATTTCACGTGCAAGG,0.2
2,TAATGCACGTGTCGGG,0.02
3,ATATTCACGTGTTTTT,0.21
4,GTTCACACGTGTAGTT,0.09
5,TTAATCACGTGGGTCT,0.09
6,TTGTGCACGTGTTCGG,0.01
7,GGTTGCACGTGTTGCC,0.05
8,GAGTTCACGTGTCATT,0.28
9,TGAATCACGTGTGAGG,0.25
10,TCGTACACGTGGGATG,-0.12
11,AGGCGCACGTGGAGTT,-0.1
12,CGCGTCACGTGGGGAA,-0.06
13,GTGCGCACGTGTAGGG,-0.03
14,TGGGACACGTGGCTTG,-0.02
15,ATATGCACGTGAATGA,0.17
16,GGACGCACGTGAGGGC,0.31
17,GCGGTCACGTGGTATG,0.05
18,AGGTTCACGTGTTGTG,0.25
19,GACGGCACGTGAATGG,0.21
20,AGTCGCACGTGAGTGG,0.24
21,ACGGTCACGTGGGAAA,0.12
22,GGTACCACGTGGGTGT,-0.32
23,GGGGGCACGTGTGCCA,-0.13
24,GGTTGCACGTGTGGCA,-0.02
25,GTGGACACGTGAGTTT,0.32
26,TGGCGCACGTGCAGTT,-0.01

row,Sequence,relative binding free energy [kcal/mol]
1,TTTGGCACGTGGGGTT,-0.17
2,AGTGTCACGTGACGCG,0.16
3,TATGTCACGTGGGTTC,-0.06
4,TGGATCACGTGTTAAG,0.27
5,TAGTGCACGTGTTGAT,-0.04
6,TTGTGCACGTGCAGGT,-0.14
7,AGAATCACGTGATGTG,0.12
8,GGAGGCACGTGATTTG,0.07
9,AAGTGCACGTGGGGAA,-0.21
10,TATTTCACGTGGTAAG,0.18
11,ATTTGCACGTGTCGTA,0.02
12,ATTGACACGTGAGGAT,0.17
13,ATGAGCACGTGTATTG,-0.08
14,GGCGGCACGTGTAAAG,0.04
15,ACTTTCACGTGGGCTT,0.16
16,AAAGGCACGTGGAAAG,0.08
17,ACTTTCACGTGAATTT,0.45
18,TTGTGCACGTGCGATG,0.14
19,ATCAGCACGTGAGGTG,0.13
20,CATGGCACGTGCGTTT,-0.15
21,CGGTTCACGTGCATGG,0.2
22,TTCATCACGTGTAGGT,0.25
23,TAGGGCACGTGCTCGG,-0.26
24,TGTTTCACGTGACGAG,0.15
25,TTGGGCACGTGCGGAT,-0.01
26,TAGCTCACGTGTGTGA,0.27

row,Sequence,relative binding free energy [kcal/mol]
1,AATGTCACGTGAAGGC,0.45
2,TATTTCACGTGGAATA,0.24
3,TTGATCACGTGGCATG,-0.01
4,ATATTCACGTGTTGAG,0.12
5,TGGCACACGTGGTTCG,-0.03
6,GAGGGCACGTGGGCGA,-0.42
7,TTATTCACGTGTTTAT,0.17
8,GGGAACACGTGCGGGG,0.01
9,TGTGCCACGTGGGTGA,-0.34
10,TGGGTCACGTGTGCTA,0.02
11,AGGTTCACGTGGAAGC,0.29
12,TTCGACACGTGTAAGT,0.18
13,TGTTTCACGTGAAGCA,0.39
14,TTTTTCACGTGGGAGT,0.2
15,ATGGGCACGTGCTGTT,-0.19
16,GGTAACACGTGCGGAG,0.15
17,TTTGTCACGTGCGGCA,0.06
18,CGTGGCACGTGTGTGT,-0.11
19,GACAGCACGTGTGGTG,0.22
20,TGGGTCACGTGATTAC,0.16
21,TAGGACACGTGTAAAG,0.15
22,TTGGACACGTGGGCTG,-0.14
23,GGTTTCACGTGTAGCC,0.47
24,TTTACCACGTGCGGGT,-0.09
25,AGGGTCACGTGTGAGT,0.22
26,ATATTCACGTGGGCGA,0.17

row,Sequence,relative binding free energy [kcal/mol]
1,GTGGGCACGTGTGTAC,-0.03
2,GTGAGCACGTGTTCTT,0.01
3,CTCATCACGTGGTGGG,-0.11
4,TATCACACGTGTTGTT,-0.01
5,GGCGGCACGTGTATTG,0.03
6,TAAATCACGTGTGTGG,0.12
7,AGTTCCACGTGGTTGG,0.08
8,TTCTACACGTGTGGGC,0.13
9,ATTGGCACGTGCTGTT,-0.02
10,GAGCGCACGTGAGATG,0.37
11,TGTGCCACGTGAAGTG,0.03
12,TATTACACGTGTTGGC,0.12
13,TGTGTCACGTGCTGTT,0.01
14,GTTTACACGTGAATTT,0.24
15,AAGTTCACGTGTTAGA,0.2
16,TTAGTCACGTGTGTTC,0.03
17,TTTGTCACGTGTTTGT,0.15
18,CCAGTCACGTGTGGGT,0.02
19,ATGGACACGTGGGGTT,0
20,ATTGTCACGTGAGAGA,0.28
21,TGTGGCACGTGGTGGC,-0.07
22,ATTTGCACGTGGGCGA,-0.24
23,TCCGTCACGTGGGGGG,-0.12
24,AGAAGCACGTGGTATT,-0.14
25,TTCTGCACGTGGTGTC,-0.11
26,TGGGTCACGTGAAGCG,0.22

row,Sequence,relative binding free energy [kcal/mol]
1,TGGTTCACGTGCGTGA,0.21
2,TGGAACACGTGATGGC,0.13
3,AGGGGCACGTGGTAGT,-0.11
4,GTCTTCACGTGTATGG,0.25
5,CTATTCACGTGGAGTA,0.23
6,AGATGCACGTGGTGGA,-0.04
7,TGTGACACGTGCCGGT,-0.03
8,GTTGGCACGTGGGAAG,-0.02
9,TTAAACACGTGGTCTG,-0.08
10,TCGCGCACGTGGGGTA,-0.34
11,TGGTCCACGTGCCGGG,-0.07
12,GTTTTCACGTGCGTCT,0.21
13,GTTAGCACGTGTAGGC,0.03
14,TAGACCACGTGAGGGT,0.19
15,AACGTCACGTGTGGGT,0.07
16,GAGTTCACGTGTTACG,0.34
17,TTTTACACGTGATGGC,0.25
18,GTTTGCACGTGTGAAA,0.22
19,GTGATCACGTGTTAGG,0.31
20,ATGGGCACGTGCGCAG,-0.27
21,TAACTCACGTGGTATG,0.21
22,GTTTCCACGTGGATTT,0.1
23,AATTGCACGTGGCTTT,-0.17
24,AGGTTCACGTGGGAGA,0.18
25,GAATGCACGTGTTTAT,-0.01
26,TTAGGCACGTGTGGGG,-0.01

row,Sequence,relative binding free energy [kcal/mol]
1,GATTACACGTGGGATT,0.19
2,TCTTGCACGTGAGATG,0.26
3,TGTAACACGTGTAGCT,0.05
4,CGGGTCACGTGTGGGT,0.16
5,TTTGCCACGTGTATAT,-0.06
6,TTAGGCACGTGCAATG,-0.14
7,AGTAACACGTGGTTTG,-0.08
8,TTGGTCACGTGATATA,0.29
9,GGGGTCACGTGGCCTA,0.08
10,TGGGTCACGTGCTCGG,0.03
11,AGTATCACGTGTGTCA,0.23
12,GGGTTCACGTGATAGA,0.31
13,GCATTCACGTGGTGAT,0.22
14,ATGTGCACGTGTGGAC,0.12
15,TTGAACACGTGGAGGT,0.01
16,CGTGTCACGTGTAAGA,0.1
17,GTGCGCACGTGTTTAT,-0.04
18,GTATGCACGTGTTTAG,-0.03
19,CGTGTCACGTGGGGCA,-0.1
20,GTCTACACGTGAAGGG,0.22
21,TTATTCACGTGCTAGT,0.07
22,TTGGTCACGTGACGGG,0.16
